Assay results published in the supplement of paper PMC11880418.
Counter-ions that a name gives are not always drawn. The list shows a part of the results. The data scatter; read single values as rough. Residues, ends and D or L forms follow the SMILES beside them.
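Further: High-content imaging of ALDEFLUOR-stained cells with Hoechst-labelled nuclei in 384-well plates, triplicate wells, scored as Z-score against 0.1% DMSO vehicle, negative meaning fewer ALDHbr cells.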

What follows are compounds tested on MKN45 (assay: ALDHbr (CSC) cell proportion score relative to DMSO vehicle (ratio to DMSO); breast (SUM159) / gastric (MKN45) / pancreatic (PANC1) / colon cancer lines; ALDHbr cells have high ALDH activity and are rich in cancer stem cells (CSC); higher = more CSC (ALDHbr) cells remaining). Conditions: 10 µM; 72 h.
For Cc1cccc(C)c1OCC(C)N (stereo not given) [Mexiletine hydrochloride], the ALDHbr was 0.994.
CCC(=O)O[C@]1(C(=O)SCF)[C@H](C)C[C@H]2[C@@H]3C[C@H](F)C4=CC(=O)C=C[C@]4(C)[C@@]3(F)[C@@H](O)C[C@@]21C [Fluticasone propionate] was tested, and the ALDHbr was 1.26.
Compound CC(C)(C)NC(=O)[C@@H]1CN(Cc2cccnc2)CCN1C[C@@H](O)C[C@@H](Cc1ccccc1)C(=O)N[C@H]1c2ccccc2C[C@H]1O [Indinavir sulfate] has an ALDHbr of 0.861.
COc1ccc(C(=O)CC(=O)c2ccc(C(C)(C)C)cc2)cc1 [Avobenzone] was tested, and the ALDHbr was 0.65.
In the case of CC(C)C(=O)Nc1ccc([N+](=O)[O-])c(C(F)(F)F)c1 [Flutamide], the ALDHbr is reported as 0.932.
Compound CN1CCCN=C1/C=C/c1cccs1 [Pyrantel tartrate] has an ALDHbr of 0.888.
Work on CCN(CC)CCOC(=O)C1(C2CCCCC2)CCCCC1 [Dicyclomine hydrochloride] yielded an ALDHbr of 0.948.
COc1ncnc(NS(=O)(=O)c2ccc(N)cc2)c1OC [Sulfadoxine] gave an ALDHbr of 1.1.
Work on CC(C)(CO)C(O)C(=O)NCCCO (stereo not given) [Panthenol (D)] yielded an ALDHbr of 1.02.
For CC1Cc2ccccc2N1NC(=O)c1ccc(Cl)c(S(N)(=O)=O)c1 (stereo not given) [Indapamide], the ALDHbr was 0.922.
CC(=O)N[C@@H](CC(=O)O)C(=O)N[C@@H](CCC(=O)O)C(=O)O [Spaglumic acid] (Ac-Asp-Glu-OH) gave an ALDHbr of 1.32.
COc1ccc(-c2cc(=S)ss2)cc1 [Anethole-trithione] showed an ALDHbr of 0.53.
In the case of CC(=O)O[C@]1(C(C)=O)CC[C@H]2[C@@H]3C=C(Cl)C4=CC(=O)[C@@H]5C[C@@H]5[C@]4(C)[C@H]3CC[C@@]21C [Cyproterone acetate], the ALDHbr is reported as 0.684.
Compound Cc1nccn1CC1CCc2c(c3ccccc3n2C)C1=O (stereo not given) [Ondansetron Hydrochloride] has an ALDHbr of 0.879.
CCCN(CCC)C(=O)C(CCC(=O)O)NC(=O)c1ccccc1 (stereo not given) [Proglumide] was tested, and the ALDHbr was 1.41.
With CN[C@@H]1[C@@H](O)[C@@H](O[C@@H]2[C@@H](O)[C@H](O[C@H]3OC(CN)=CC[C@H]3N)[C@@H](N)C[C@H]2N)OC[C@]1(C)O [Sisomicin sulfate] the ALDHbr was 0.892.
CO[C@@]1(NC(=O)C(C(=O)O)c2ccc(O)cc2)C(=O)N2C(C(=O)O)=C(CSc3nnnn3C)CO[C@@H]21 (stereo not given in full) [Moxalactam disodium salt] gave an ALDHbr of 0.993.
NC[C@@H]1O[C@H](O[C@H]2[C@@H](O)[C@H](O[C@@H]3[C@@H](O)[C@H](N)C[C@H](N)[C@H]3O[C@H]3O[C@H](CN)[C@@H](O)[C@H](O)[C@H]3N)O[C@@H]2CO)[C@H](N)[C@@H](O)[C@@H]1O [Neomycin sulfate] was tested, and the ALDHbr was 1.09.
CC[C@@H](CO)NCCN[C@@H](CC)CO [Ethambutol dihydrochloride] was tested, and the ALDHbr was 0.901.
Work on CCOc1ccc(Cc2nccc3cc(OCC)c(OCC)cc23)cc1OCC [Ethaverine hydrochloride] yielded an ALDHbr of 1.33.
For CC(C)NCC(O)COc1ccc(CCOCC2CC2)cc1 (stereo not given) [Betaxolol hydrochloride], the ALDHbr was 0.962.
Cc1cn[nH]c1 [Fomepizole] showed an ALDHbr of 0.976.
For CCCCCCCN(CC)CCCC(O)c1ccc(NS(C)(=O)=O)cc1 (stereo not given) [Ibutilide fumarate], the ALDHbr was 0.953.
Compound COc1ccccc1N1CCN(CCCNc2cc(=O)n(C)c(=O)n2C)CC1 [Urapidil hydrochloride] has an ALDHbr of 1.08.
Compound NC[C@H]1O[C@H](O[C@H]2[C@H](O[C@@H]3O[C@H](CO)[C@@H](O)[C@H]3O)[C@@H](O)[C@H](N)C[C@@H]2N)[C@H](N)[C@@H](O)[C@@H]1O [Ribostamycin sulfate salt] has an ALDHbr of 0.964.
Compound O=C(O[C@@H]1C[C@@H]2C[C@H]3C[C@H](C1)N2CC3=O)c1c[nH]c2ccccc12 [Dolasetron mesilate] has an ALDHbr of 0.833.
Work on CNCCC(Oc1ccccc1OC)c1ccccc1 (stereo not given) [Nisoxetine hydrochloride] yielded an ALDHbr of 1.14.
Compound CCN1CCC[C@H]1CNC(=O)c1c(OC)ccc(Br)c1OC [Remoxipride Hydrochloride] has an ALDHbr of 1.03.
COc1cc(NC(C)CCCN)c2ncccc2c1 (stereo not given) [Primaquine diphosphate] gave an ALDHbr of 1.4.
With Cc1cc2c(cc1S(N)(=O)=O)S(=O)(=O)CCC2 [Meticrane] the ALDHbr was 0.856.
Work on Nc1nc(=O)[nH]cc1F [Flucytosine] yielded an ALDHbr of 1.06.
For COc1ccccc1O [Guaiacol], the ALDHbr was 1.03.
NS(=O)(=O)c1cc2c(cc1Cl)NC(CC1CCCC1)NS2(=O)=O (stereo not given) [Cyclopenthiazide] showed an ALDHbr of 1.05.
Compound C[C@@H]1CCC[C@H](C)N1NC(=O)c1ccc(Cl)c(S(N)(=O)=O)c1 [Clopamide] has an ALDHbr of 0.945.
CC1(C)S[C@@H]2[C@H](NC(=O)Cc3ccccc3)C(=O)N2[C@H]1C(=O)O [Benzylpenicillin sodium] showed an ALDHbr of 1.01.
With CCc1ccc(CCOc2ccc(CC3SC(=O)NC3=O)cc2)nc1 (stereo not given) [Pioglitazone] the ALDHbr was 0.819.
Compound CO[C@H]1/C=C/O[C@@]2(C)Oc3c(C)c(O)c4c(O)c(c(/C=N/N5CCN(C)CC5)c(O)c4c3C2=O)NC(=O)/C(C)=C\C=C\[C@H](C)[C@H](O)[C@@H](C)[C@@H](O)[C@@H](C)[C@H](OC(C)=O)[C@@H]1C [Rifampicin] has an ALDHbr of 1.15.
CS(=O)(=O)Nc1ccc([N+](=O)[O-])cc1Oc1ccccc1 [Nimesulide] showed an ALDHbr of 0.846.
CCCCC1C(=O)N(c2ccccc2)N(c2ccc(O)cc2)C1=O (stereo not given) [Oxyphenbutazone] gave an ALDHbr of 1.1.
With COc1ccc2[nH]c([S+]([O-])Cc3ncc(C)c(OC)c3C)nc2n1 (stereo not given) [Tenatoprazole] the ALDHbr was 1.5.
